The campaign covered roughly 310,000 compounds. About 2,200 (0.71%) showed an effect of 50% or more. The effect is printed as a negative number. The list shows a part of the results.
biological target: human ether-à-go-go-related gene (hERG) potassium channel (human, UniProt Q12809); experiment: primary screen, population patch clamp on CHO cells stably expressing hERG
Sequence (Q12809 whole entry, looked up): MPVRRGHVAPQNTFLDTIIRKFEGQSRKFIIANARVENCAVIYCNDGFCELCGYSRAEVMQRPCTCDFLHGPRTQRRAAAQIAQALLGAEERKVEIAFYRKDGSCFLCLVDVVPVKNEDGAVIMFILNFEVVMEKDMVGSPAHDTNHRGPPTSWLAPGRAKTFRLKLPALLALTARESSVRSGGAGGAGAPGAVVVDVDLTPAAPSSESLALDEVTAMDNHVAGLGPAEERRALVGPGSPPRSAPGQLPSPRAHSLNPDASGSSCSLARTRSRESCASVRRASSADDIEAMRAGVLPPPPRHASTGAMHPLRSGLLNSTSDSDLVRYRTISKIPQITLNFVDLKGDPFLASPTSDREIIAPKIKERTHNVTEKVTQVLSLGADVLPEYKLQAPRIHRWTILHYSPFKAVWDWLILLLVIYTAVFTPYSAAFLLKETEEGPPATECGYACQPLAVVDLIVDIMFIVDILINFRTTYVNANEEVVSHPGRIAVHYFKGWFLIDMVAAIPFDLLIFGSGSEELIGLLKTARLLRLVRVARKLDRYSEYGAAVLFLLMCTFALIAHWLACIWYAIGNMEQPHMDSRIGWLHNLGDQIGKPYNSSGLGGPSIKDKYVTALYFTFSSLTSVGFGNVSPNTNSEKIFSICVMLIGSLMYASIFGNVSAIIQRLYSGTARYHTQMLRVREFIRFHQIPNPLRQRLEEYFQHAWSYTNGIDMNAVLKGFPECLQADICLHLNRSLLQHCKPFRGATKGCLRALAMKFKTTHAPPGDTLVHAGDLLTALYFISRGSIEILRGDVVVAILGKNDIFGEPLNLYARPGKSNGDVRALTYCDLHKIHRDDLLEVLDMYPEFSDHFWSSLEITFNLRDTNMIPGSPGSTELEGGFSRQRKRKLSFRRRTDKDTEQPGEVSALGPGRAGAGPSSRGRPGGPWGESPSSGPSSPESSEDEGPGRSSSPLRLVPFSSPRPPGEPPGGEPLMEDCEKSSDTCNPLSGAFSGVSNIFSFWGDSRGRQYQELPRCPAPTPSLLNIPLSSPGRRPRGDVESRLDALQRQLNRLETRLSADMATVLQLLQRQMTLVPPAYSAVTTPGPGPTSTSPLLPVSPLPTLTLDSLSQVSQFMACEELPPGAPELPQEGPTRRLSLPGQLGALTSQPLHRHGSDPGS

| Compound | hERG current change (%, negative = inhibition) at 1uM [%] |
| --- | --- |
| CN(C)CCNc1nc2c(c(=O)[nH]c(=O)n2C)n1CCCc1ccccc1 | -4.68 |
| COc1cc(CCC(=O)OCC(=O)Nc2c(Cl)cccc2Cl)cc(OC)c1OC | 11.4 |
| O=C(c1ccc(Cl)c(S(=O)(=O)N2CCOCC2)c1)N1CCOCC1 | 4.65 |
| S=c1[nH]nc(C2CCCCC2)n1/N=C/c1cccc(Cl)c1Cl | -5.17 |
| O=C(CCn1c(=O)[nH]c2ccsc2c1=O)NCc1ccc(F)cc1 | 5.81 |
| O=C(NP(=O)(N1CCOCC1)N1CCOCC1)C1=C(N2CCOCC2)/C(=C\c2ccccc2)CC1 | 16.5 |
| COc1ccc(C)cc1NC(=O)C(=O)c1cn(CC(=O)N2CCCC2)c2ccccc12 | 4.64 |
| COc1ccccc1NC(=O)Nc1ccc2c(c1)nnn2C | 6.64 |
| CSCC(=O)N1CCCC(N2CCN(c3ccc(F)cc3)CC2)C1 (stereo not shown) | 0.918 |
| COC(=O)c1ccccc1NC(=O)NCc1ccccc1 | 2.28 |
| O=[N+]([O-])c1ccccc1N/N=C1\CC2CC=CC12 (stereo not shown) | 11.2 |
| Cc1csc(NC(=O)CSc2nnc(C)n2Cc2ccco2)n1 | 7.95 |
| CCCS(=O)(=O)NCc1ccc2c(c1)cc(C)n2C | 2.92 |
| CC(C)C(OC(=O)c1cccs1)C(=O)NCc1ccco1 (stereo not shown) | 12.2 |
| O=C(NCCCn1ccnc1)c1cc(-c2cccs2)on1 | -3.58 |
| COc1ccc(CCNc2oc(COc3ccc(F)cc3)nc2C#N)cc1 | 19.2 |
| Cc1ccc(NC(=O)Cc2ccc(F)cc2)cc1 | 10.5 |
| O=C(CN1CCN(c2ccc(F)cc2)CC1)Nc1ccc2c(c1)OCCO2 | 14.1 |
| COC(=O)C1=C(N)OC2=C(C(=O)CCC2)C1c1cccs1 (stereo not shown) | 2.11 |
| CCN(CC)S(=O)(=O)c1ccc(NS(=O)(=O)c2ccc(F)cc2)cc1 | 19.3 |
| NC(=O)C1CCN(c2cc(N3CCOCC3)ccc2[N+](=O)[O-])CC1 | 25.1 |
| O=C(COC(=O)CCC(=O)c1ccc(Cl)cc1)NCCc1ccccc1 | 9.92 |
| CCCNC(=O)NNC(=O)c1ccc(F)cc1 | 2.91 |
| COc1ccc(-c2cc(OC)c3c(C)oc(C)c3c(=O)c2)cc1OC | 15.5 |
| O=C(NCCC(=O)N1CCN(c2ccccn2)CC1)c1ccc(Br)cc1 | 2.75 |
| CN(C)S(=O)(=O)c1ccc(C(=O)NC(=O)CSc2ccccc2)cc1 | 8.85 |
| CCn1c(C(=O)N2CCC(C(=O)NCc3cccs3)CC2)cc2sccc21 | -20.7 |
| CN(C(=O)c1cccnc1)c1nnc(-c2ccccn2)s1 | 11 |

| Compound | hERG current change (%, negative = inhibition) at 1uM [%] |
| --- | --- |
| COCCCNC(=O)C(Cc1ccccc1)NS(=O)(=O)c1ccc2c(c1)c(=O)n(C)c(=O)n2C (stereo not shown) | 1.74 |
| C[C@H](NC(N)=O)C(=O)OCC(=O)NCc1cccs1 | 0.678 |
| Cc1cccc(-n2c(O)c(C=Nc3cc(O)ccc3C)c3ccccc3c2=O)n1 | 7.6 |
| O=C(/C=C/c1ccc(Br)cc1)Nc1ccc(S(=O)(=O)Nc2ncccn2)cc1 | -4.6 |
| Cc1cc(OCC(=O)N2CCN(c3ccccn3)CC2)c(C)cc1Br | 3.11 |
| COc1ccc(NC(=O)c2ccc(-c3ccc(C(C)=O)cc3)o2)cn1 | 10.4 |
| Cc1ccc(C(=O)O)cc1NS(=O)(=O)c1ccc2ccccc2c1 | 8.23 |
| CCN1C(=O)[C@H]2[C@@H](c3ccc(-c4ccc(F)cc4)c(OC)c3)N[C@@](CC(C)C)(C(=O)OC)[C@H]2C1=O.O=C(O)C(F)(F)F | 7.34 |
| Cc1cc(NC(=O)CCN2C(=O)C3C4CCC(C4)C3C2=O)cc(C)c1Br (stereo not shown) | -7.77 |
| O=C1C=C(c2ccc(F)cc2OCc2ccccc2)C[C@@H](c2ccc3c(c2)OCO3)C1 | 11.3 |
| Cc1cccc(CN2CCCC(C(=O)c3ccc(C(F)(F)F)cc3)C2)n1 (stereo not shown) | -40 |
| Cc1nnc(Oc2ccc([N+](=O)[O-])cc2)c2ccccc12 | 4.88 |
| CCC(=O)N(CCC(c1ccco1)c1ccccc1OC)Cc1cccs1 (stereo not shown) | -31.3 |
| COc1ccc(NC(=O)CSc2nnc(-c3ccoc3C)n2CC2CCCO2)cc1 (stereo not shown) | 9.49 |
| CC(=O)c1c(C)n(-c2ccc(Cl)cc2)c2ccc(O)cc12 | 16.5 |
| COC(=O)c1c(C)n(-c2ccc(C)cc2)c2ccc(O)cc12 | 3.23 |
| CCn1c(=O)c2sccc2n2c(CCCC(=O)NC3CCN(Cc4ccccc4)CC3)nnc12 | 8.55 |
| COC(=O)C1=C(C(=O)OC)[C@@H]2N(Cc3ccccc3)c3ccccc3[C@@]23C[C@@H](C(=O)OC)N(C(=O)COCc2ccccc2)C3=N1 | 12.2 |
| O=C(CSc1nccc(=O)[nH]1)NCc1ccc(Cl)cc1 | 5.93 |
| CC(=O)NC(Cc1ccc(C)cc1)C(=O)NC1CCN(C(=O)c2cnccn2)CC1 (stereo not shown) | -0.512 |
| NC(=O)CC(NC(=O)OCc1ccccc1)C(=O)O (stereo not shown) | -11.6 |
| CC1Cc2ccccc2N1C(=O)COc1nc2ccccc2nc1N1CCOCC1 (stereo not shown) | 7.15 |
| O=S(=O)(c1ccc(F)cc1)N1CCCCC1c1cccnc1 (stereo not shown) | 10.1 |
| CN(CC(=O)NC1CCCc2ccccc21)S(=O)(=O)c1ccc2c(c1)c(=O)n(C)c(=O)n2C (stereo not shown) | 8.89 |
| CC(C)(C)c1cc(C(=O)O)n(Cc2ccc(Cl)cc2Cl)n1 | 4.47 |
| O=C(NCCN1CCOCC1)c1ccc(CS(=O)(=O)c2ccc(Cl)cc2)o1 | 8.27 |
| COc1cc(NC(=O)C(=O)N2CCN(C)CC2)c(OC)cc1Cl | 14.1 |

Source: paper PMC4336329 (PLoS ONE, 2015)
